First the molecules themselves.
B1: PRKCZ, Q05513 (protein)
chain: MPSRTGPKMEGSGGRVRLKAHYGGDIFITSVDAATTFEELCEEVRDMCRLHQQHPLTLKWVDSEGDPCTVSSQMELEEAFRLARQCRDEGLIIHVFPSTPEQPGLPCPGEDKSIYRRGARRWRKLYRANGHLFQAKRFNRRAYCGQCSERIWGLARQGYRCINCKLLVHKRCHGLVPLTCRKHMDSVMPSQEPPVDDKNEDADLPSEETDGIAYISSSRKHDSIKDDSEDLKPVIDGMDGIKISQGLGLQDFDLIRVIGRGSYAKVLLVRLKKNDQIYAMKVVKKELVHDDEDIDWVQTEKHVFEQASSNPFLVGLHSCFQTTSRLFLVIEYVNGGDLMFHMQRQRKLPEEHARFYAAEICIALNFLHERGIIYRDLKLDNVLLDADGHIKLTDYGMCKEGLGPGDTTSTFCGTPNYIAPEILRGEEYGFSVDWWALGVLMFEMMAGRSPFDIITDNPDMNTEDYLFQVILEKPIRIPRFLSVKASHVLKGFLNKDPKERLGCRPQTGFSDIKSHAFFRSIDWDLLEKKQALPPFQPQITDDYGLDNFDTQFTSEPVQLTPDDEDAIKRIDQSEFEGFEYINPLLLSTEESV
B2: HMG20A, Q9NP66 (protein)
chain: MENLMTSSTLPPLFADEDGSKESNDLATTGLNHPEVPYSSGATSSTNNPEFVEDLSQGQLLQSESSNAAEGNEQRHEDEQRSKRGGWSKGRKRKKPLRDSNAPKSPLTGYVRFMNERREQLRAKRPEVPFPEITRMLGNEWSKLPPEEKQRYLDEADRDKERYMKELEQYQKTEAYKVFSRKTQDRQKGKSHRQDAARQATHDHEKETEVKERSVFDIPIFTEEFLNHSKAREAELRQLRKSNMEFEERNAALQKHVESMRTAVEKLEVDVIQERSRNTVLQQHLETLRQVLTSSFASMPLPGSGETPTVDTIDSYMNRLHSIILANPQDNENFIATVREVVNRLDR
B3: SP100, P23497 (protein)
chain: MAGGGGDLSTRRLNECISPVANEMNHLPAHSHDLQRMFTEDQGVDDRLLYDIVFKHFKRNKVEISNAIKKTFPFLEGLRDRDLITNKMFEDSQDSCRNLVPVQRVVYNVLSELEKTFNLPVLEALFSDVNMQEYPDLIHIYKGFENVIHDKLPLQESEEEEREERSGLQLSLEQGTGENSFRSLTWPPSGSPSHAGTTPPENGLSEHPCETEQINAKRKDTTSDKDDSLGSQQTNEQCAQKAEPTESCEQIAVQVNNGDAGREMPCPLPCDEESPEAELHNHGIQINSCSVRLVDIKKEKPFSNSKVECQAQARTHHNQASDIIVISSEDSEGSTDVDEPLEVFISAPRSEPVINNDNPLESNDEKEGQEATCSRPQIVPEPMDFRKLSTFRESFKKRVIGQDHDFSESSEEEAPAEASSGALRSKHGEKAPMTSRSTSTWRIPSRKRRFSSSDFSDLSNGEELQETCSSSLRRGSGSQPQEPENKKCSCVMCFPKGVPRSQEARTESSQASDMMDTMDVENNSTLEKHSGKRRKKRRHRSKVNGLQRGRKKDRPRKHLTLNNKVQKKRWQQRGRKANTRPLKRRRKRGPRIPKDENINFKQSELPVTCGEVKGTLYKERFKQGTSKKCIQSEDKKWFTPREFEIEGDRGASKNWKLSIRCGGYTLKVLMENKFLPEPPSTRKKRILESHNNTLVDPCEEHKKKNPDASVKFSEFLKKCSETWKTIFAKEKGKFEDMAKADKAHYEREMKTYIPPKGEKKKKFKDPNAPKRPPLAFFLFCSEYRPKIKGEHPGLSIDDVVKKLAGMWNNTAAADKQFYEKKAAKLKEKYKKDIAAYRAKGKPNSAKKRVVKAEKSKKKKEEEEDEEDEQEEENEEDDDK
B4: VAV1, P15498 (protein)
chain: MELWRQCTHWLIQCRVLPPSHRVTWDGAQVCELAQALRDGVLLCQLLNNLLPHAINLREVNLRPQMSQFLCLKNIRTFLSTCCEKFGLKRSELFEAFDLFDVQDFGKVIYTLSALSWTPIAQNRGIMPFPTEEESVGDEDIYSGLSDQIDDTVEEDEDLYDCVENEEAEGDEIYEDLMRSEPVSMPPKMTEYDKRCCCLREIQQTEEKYTDTLGSIQQHFLKPLQRFLKPQDIEIIFINIEDLLRVHTHFLKEMKEALGTPGAANLYQVFIKYKERFLVYGRYCSQVESASKHLDRVAAAREDVQMKLEECSQRANNGRFTLRDLLMVPMQRVLKYHLLLQELVKHTQEAMEKENLRLALDAMRDLAQCVNEVKRDNETLRQITNFQLSIENLDQSLAHYGRPKIDGELKITSVERRSKMDRYAFLLDKALLICKRRGDSYDLKDFVNLHSFQVRDDSSGDRDNKKWSHMFLLIEDQGAQGYELFFKTRELKKKWMEQFEMAISNIYPENATANGHDFQMFSFEETTSCKACQMLLRGTFYQGYRCHRCRASAHKECLGRVPPCGRHGQDFPGTMKKDKLHRRAQDKKRNELGLPKMEVFQEYYGLPPPPGAIGPFLRLNPGDIVELTKAEAEQNWWEGRNTSTNEIGWFPCNRVKPYVHGPPQDLSVHLWYAGPMERAGAESILANRSDGTFLVRQRVKDAAEFAISIKYNVEVKHIKIMTAEGLYRITEKKAFRGLTELVEFYQQNSLKDCFKSLDTTLQFPFKEPEKRTISRPAVGSTKYFGTAKARYDFCARDRSELSLKEGDIIKILNKKGQQGWWRGEIYGRVGWFPANYVEEDYSEYC
B5: HOXD3, P31249 (protein)
chain: MLFEQGQQALELPECTMQKAAYYENPGLFGGYGYSKTTDTYGYSTPHQPYPPPAAASSLDTDYPGSACSIQSSAPLRAPAHKGAELNGSCMRPGTGNSQGGGGGSQPPGLNSEQQPPQPPPPPPTLPPSSPTNPGGGVPAKKPKGGPNASSSSATISKQIFPWMKESRQNSKQKNSCATAGESCEDKSPPGPASKRVRTAYTSAQLVELEKEFHFNRYLCRPRRVEMANLLNLTERQIKIWFQNRRMKYKKDQKAKGILHSPASQSPERSPPLGGAAGHVAYSGQLPPVPGLAYDAPSPPAFAKSQPNMYGLAAYTAPLSSCLPQQKRYAAPEFEPHPMASNGGGFASANLQGSPVYVGGNFVESMAPASGPVFNLGHLSHPSSASVDYSCAAQIPGNHHHGPCDPHPTYTDLSAHHSSQGRLPEAPKLTHL
B6: ZNF155, Q12901 (protein)
chain: MTTFKEAVTFKDVAVVFTEEELGLLDPAQRKLYRDVMLENFRNLLSVGHQPFHQDTCHFLREEKFWMMGTATQREGNSGGKIQTELESVPEAGAHEEWSCQQIWEQIAKDLTRSQDSIINNSQFFENGDVPSQVEAGLPTIHTGQKPSQGGKCKQSISDVPIFDLPQQLYSEEKSYTCDECGKSICYISALHVHQRVHVGEKLFMCDVCGKEFSQSSHLQTHQRVHTGEKPFKCEQCGKGFSRRSALNVHRKLHTGEKPYICEACGKAFIHDSQLKEHKRIHTGEKPFKCDICGKTFYFRSRLKSHSMVHTGEKPFRCDTCDKSFHQRSALNRHCMVHTGEKPYRCEQCGKGFIGRLDFYKHQVVHTGEKPYNCKECGKSFRWSSCLLNHQRVHSGEKSFKCEECGKGFYTNSQLSSHQRSHSGEKPYKCEECGKGYVTKFNLDLHQRVHTGERPYNCKECGKNFSRASSILNHKRLHCQKKPFKCEDCGKRLVHRTYRKDQPRDYSGENPSKCEDCGRRYKRRLNLDILLSLFLNDT
B7: LMO4, P61968 (protein)
chain: MVNPGSSSQPPPVTAGSLSWKRCAGCGGKIADRFLLYAMDSYWHSRCLKCSCCQAQLGDIGTSCYTKSGMILCRNDYIRLFGNSGACSACGQSIPASELVMRAQGNVYHLKCFTCSTCRNRLVPGDRFHYINGSLFCEHDRPTALINGHLNSLQSNPLLPDQKVC
B8: PTCH1, Q13635 (protein)
chain: MASAGNAAEPQDRGGGGSGCIGAPGRPAGGGRRRRTGGLRRAAAPDRDYLHRPSYCDAAFALEQISKGKATGRKAPLWLRAKFQRLLFKLGCYIQKNCGKFLVVGLLIFGAFAVGLKAANLETNVEELWVEVGGRVSRELNYTRQKIGEEAMFNPQLMIQTPKEEGANVLTTEALLQHLDSALQASRVHVYMYNRQWKLEHLCYKSGELITETGYMDQIIEYLYPCLIITPLDCFWEGAKLQSGTAYLLGKPPLRWTNFDPLEFLEELKKINYQVDSWEEMLNKAEVGHGYMDRPCLNPADPDCPATAPNKNSTKPLDMALVLNGGCHGLSRKYMHWQEELIVGGTVKNSTGKLVSAHALQTMFQLMTPKQMYEHFKGYEYVSHINWNEDKAAAILEAWQRTYVEVVHQSVAQNSTQKVLSFTTTTLDDILKSFSDVSVIRVASGYLLMLAYACLTMLRWDCSKSQGAVGLAGVLLVALSVAAGLGLCSLIGISFNAATTQVLPFLALGVGVDDVFLLAHAFSETGQNKRIPFEDRTGECLKRTGASVALTSISNVTAFFMAALIPIPALRAFSLQAAVVVVFNFAMVLLIFPAILSMDLYRREDRRLDIFCCFTSPCVSRVIQVEPQAYTDTHDNTRYSPPPPYSSHSFAHETQITMQSTVQLRTEYDPHTHVYYTTAEPRSEISVQPVTVTQDTLSCQSPESTSSTRDLLSQFSDSSLHCLEPPCTKWTLSSFAEKHYAPFLLKPKAKVVVIFLFLGLLGVSLYGTTRVRDGLDLTDIVPRETREYDFIAAQFKYFSFYNMYIVTQKADYPNIQHLLYDLHRSFSNVKYVMLEENKQLPKMWLHYFRDWLQGLQDAFDSDWETGKIMPNNYKNGSDDGVLAYKLLVQTGSRDKPIDISQLTKQRLVDADGIINPSAFYIYLTAWVSNDPVAYAASQANIRPHRPEWVHDKADYMPETRLRIPAAEPIEYAQFPFYLNGLRDTSDFVEAIEKVRTICSNYTSLGLSSYPNGYPFLFWEQYIGLRHWLLLFISVVLACTFLVCAVFLLNPWTAGIIVMVLALMTVELFGMMGLIGIKLSAVPVVILIASVGIGVEFTVHVALAFLTAIGDKNRRAVLALEHMFAPVLDGAVSTLLGVLMLAGSEFDFIVRYFFAVLAILTILGVLNGLVLLPVLLSFFGPYPEVSPANGLNRLPTPSPEPPPSVVRFAMPPGHTHSGSDSSDSEYSSQTTVSGLSEELRHYEAQQGAGGPAHQVIVEATENPVFAHSTVVHPESRHHPPSNPRQQPHLDSGSLPPGRQGQQPRRDPPREGLWPPPYRPRRDAFEISTEGHSGPSNRARWGPRGARSHNPRNPASTAMGSSVPGYCQPITTVTASASVTVAVHPPPVPGPGRNPRGGLCPGYPETDHGLFEDPHVPFHVRCERRDSKVEVIELQDVECEERPRGSSSN

The list shows a part of the results. Binding of human transcription factors and regulators to the viral nucleoprotein by AlphaScreen, crude cell-free proteins, amounts not normalised, one pass. Fold of the Venus control; higher = more signal. No active / inactive call. Single-pass screen; sequences are the whole Swiss-Prot entries looked up by name.

In the assay the target is nucleoprotein N of Crimean-Congo hemorrhagic fever virus. Description: AlphaScreen luminescence signal relative to Venus negative control (fold); higher = stronger binding to CCHFV N. The method, then: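 AlphaScreen binding of cell-free made, FLAG-GST-tagged human transcription factors and regulators (crude translation products) to biotinylated N protein; signal as fold of the FLAG-GST-Venus control. One pass.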
On the technique in general: Bead proximity is the source of the signal in Alpha formats.
Molecule B1 had an AlphaScreen luminescence signal of 3.26.
For the molecule B2, the AlphaScreen luminescence signal was determined as 2.23.
Regarding B3, the AlphaScreen luminescence signal was 1.02.
B4 had an AlphaScreen luminescence signal of 2.05.
For the molecule B5, the AlphaScreen luminescence signal came out at 4.19.
For B6 the value was 2.74.
Molecule B7 had an AlphaScreen luminescence signal of 2.
On to B8, for which the AlphaScreen luminescence signal was 3.77.

The values above are taken from the supplement of paper PMC12423691.
